The list shows a part of the results, in another mix than the full data. The list includes weakly bound sequences.

For this assay, the target named is T1, GST-Aq-NF-kB (UniProt A9Y5G7).
T1 sequence: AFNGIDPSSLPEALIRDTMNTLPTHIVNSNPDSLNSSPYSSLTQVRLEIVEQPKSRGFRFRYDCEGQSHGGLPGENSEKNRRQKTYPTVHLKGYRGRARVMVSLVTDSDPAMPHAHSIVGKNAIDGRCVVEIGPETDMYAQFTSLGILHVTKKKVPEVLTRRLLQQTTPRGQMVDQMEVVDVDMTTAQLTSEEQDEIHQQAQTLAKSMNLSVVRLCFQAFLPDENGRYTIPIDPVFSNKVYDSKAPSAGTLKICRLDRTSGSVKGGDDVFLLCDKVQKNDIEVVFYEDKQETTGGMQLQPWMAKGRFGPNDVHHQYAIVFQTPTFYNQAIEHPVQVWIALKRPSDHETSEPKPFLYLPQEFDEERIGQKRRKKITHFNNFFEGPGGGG
In words: protein-binding microarray (PBM). As to conditions: PBM: ~300 nM protein, 6 mM HEPES pH 7.8, 80 mM KCl, 0.5 mM EDTA, 0.5 mM EGTA, 6% glycerol, 35 ng/ul poly-dIdC, 1% milk, 1 h, room temperature; Ap Aiptasia and Nv Nematostella (sea anemones) / Co Capsaspora / Aq Amphimedon (sponge) / Dm Drosophila / Hu human; RHD is the Rel homology domain; high values mean tight binding; most listed sequences are background and not binding sites; double strand, one strand shown.
The sequence “CCGATTAACATCAAGTTTTTTCCTGATGTTAATCGGGTCTTGATTCGCTTGACGCTGCTG” returned a binding signal of 0.43 z-score.

The sequence “CCGATTAACATCAGGAAAAATACTGATGTTAATCGGGTCTTGATTCGCTTGACGCTGCTG” had a binding signal of 0.388 z-score.

In the case of “CCGATTAACATCAAAAATTCCCCTGATGTTAATCGGGTCTTGATTCGCTTGACGCTGCTG”, the binding signal was found to be 9.6 z-score. In turn, “CCGATTAACATCAAGTAATTTTCTGATGTTAATCGGGTCTTGATTCGCTTGACGCTGCTG” had a binding signal of 0.0307 z-score.

Sequence “CCGATTAACATCAAGTATTTTCCTGATGTTAATCGGGTCTTGATTCGCTTGACGCTGCTG” gave a binding signal of 0.748 z-score. As for “CCGATTAACATCACCTCTCGCGCTGATGTTAATCGGGTCTTGATTCGCTTGACGCTGCTG”, the binding signal is 0.426 z-score. As for “CCGATTAACATCAGTGGTACTTGTGATGTTAATCGGGTCTTGATTCGCTTGACGCTGCTG”, the binding signal came out at 0.0921 z-score. On to “CCGATTAACATCAGGAAAAACACTGATGTTAATCGGGTCTTGATTCGCTTGACGCTGCTG”, for which the binding signal was found to be 0.798 z-score. The sequence “CCGATTAACATCAGCGGAATTCCTGATGTTAATCGGGTCTTGATTCGCTTGACGCTGCTG” came in with a binding signal of 1.89 z-score. As for “CCGATTAACATCACGTACATTCCTGATGTTAATCGGGTCTTGATTCGCTTGACGCTGCTG”, the figure is 0.0816 z-score.

Turning to “CCGATTAACATCAGTGTGCTTCTTGATGTTAATCGGGTCTTGATTCGCTTGACGCTGCTG”, the binding signal is -0.396 z-score. As for “CCGATTAACATCAGTTTTTTCCATGATGTTAATCGGGTCTTGATTCGCTTGACGCTGCTG”, the figure is 0.593 z-score; as for “CCGATTAACATCAGGCAAGTCCCTGATGTTAATCGGGTCTTGATTCGCTTGACGCTGCTG”, 5.74 z-score.

For “CCGATTAACATCAGGAAAGTCCATGATGTTAATCGGGTCTTGATTCGCTTGACGCTGCTG”, the binding signal amounted to 3.71 z-score.

Values taken from article PMC5700166.
